# Where a chain is given by its changes, count along the chain named. The list shows a part of the results.
# T1: RBFOX1 RRM (Homo sapiens, UniProt Q9NWB1 109-208)
# T1 sequence: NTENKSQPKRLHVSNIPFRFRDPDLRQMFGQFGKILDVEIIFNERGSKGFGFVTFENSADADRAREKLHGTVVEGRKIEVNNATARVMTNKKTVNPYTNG
# B1: GAAUCGA (DNA:RNA)
# RNA: GGGAGACCGGAAUUCAGAUUGUCCGAAUCGAUUAAAUCCCGUCGUAGCCACCA
# DNA 1: CAATCTGAATTCCGGTCTCCC
# DNA 2: TGGTGGCTACGACGGGATT
# B2: AGAAAAG (DNA:RNA)
# RNA: B1 RNA with G25A, A26G, U28A, C29A, G30A, A31G
# DNA 1: CAATCTGAATTCCGGTCTCCC
# DNA 2: TGGTGGCTACGACGGGATT
# B3: AAUAUAG (DNA:RNA)
# RNA: B1 RNA with G25A, A27U, U28A, C29U, G30A, A31G
# DNA 1: CAATCTGAATTCCGGTCTCCC
# DNA 2: TGGTGGCTACGACGGGATT
# B4: AUGACUA (DNA:RNA)
# RNA: B1 RNA with G25A, A26U, A27G, U28A, G30U
# DNA 1: CAATCTGAATTCCGGTCTCCC
# DNA 2: TGGTGGCTACGACGGGATT
# B5: GGCUGUG (DNA:RNA)
# RNA: B1 RNA with A26G, A27C, C29G, G30U, A31G
# DNA 1: CAATCTGAATTCCGGTCTCCC
# DNA 2: TGGTGGCTACGACGGGATT
# B6: GGUGCUA (DNA:RNA)
# RNA: B1 RNA with A26G, A27U, U28G, G30U
# DNA 1: CAATCTGAATTCCGGTCTCCC
# DNA 2: TGGTGGCTACGACGGGATT
# B7: UAGGUGG (DNA:RNA)
# RNA: B1 RNA with G25U, A27G, U28G, C29U, A31G
# DNA 1: CAATCTGAATTCCGGTCTCCC
# DNA 2: TGGTGGCTACGACGGGATT
# B8: CCGGCAG (DNA:RNA)
# RNA: B1 RNA with G25C, A26C, A27G, U28G, G30A, A31G
# DNA 1: CAATCTGAATTCCGGTCTCCC
# DNA 2: TGGTGGCTACGACGGGATT
# B9: UUCUCUU (DNA:RNA)
# RNA: B1 RNA with G25U, A26U, A27C, G30U, A31U
# DNA 1: CAATCTGAATTCCGGTCTCCC
# DNA 2: TGGTGGCTACGACGGGATT
# B10: UGAGCAA (DNA:RNA)
# RNA: B1 RNA with G25U, A26G, U28G, G30A
# DNA 1: CAATCTGAATTCCGGTCTCCC
# DNA 2: TGGTGGCTACGACGGGATT
# B11: UAUUAGC (DNA:RNA)
# RNA: B1 RNA with G25U, A27U, C29A, A31C
# DNA 1: CAATCTGAATTCCGGTCTCCC
# DNA 2: TGGTGGCTACGACGGGATT
# B12: GGUUGUU (DNA:RNA)
# RNA: B1 RNA with A26G, A27U, C29G, G30U, A31U
# DNA 1: CAATCTGAATTCCGGTCTCCC
# DNA 2: TGGTGGCTACGACGGGATT
# B13: CGACAGA (DNA:RNA)
# RNA: B1 RNA with G25C, A26G, U28C, C29A
# DNA 1: CAATCTGAATTCCGGTCTCCC
# DNA 2: TGGTGGCTACGACGGGATT
# B14: AGAUGUC (DNA:RNA)
# RNA: B1 RNA with G25A, A26G, C29G, G30U, A31C
# DNA 1: CAATCTGAATTCCGGTCTCCC
# DNA 2: TGGTGGCTACGACGGGATT
# B15: AUGGGGU (DNA:RNA)
# RNA: B1 RNA with G25A, A26U, A27G, U28G, C29G, A31U
# DNA 1: CAATCTGAATTCCGGTCTCCC
# DNA 2: TGGTGGCTACGACGGGATT
# B16: UGAUUGU (DNA:RNA)
# RNA: B1 RNA with G25U, A26G, C29U, A31U
# DNA 1: CAATCTGAATTCCGGTCTCCC
# DNA 2: TGGTGGCTACGACGGGATT
# B17: CUGUGCG (DNA:RNA)
# RNA: B1 RNA with G25C, A26U, A27G, C29G, G30C, A31G
# DNA 1: CAATCTGAATTCCGGTCTCCC
# DNA 2: TGGTGGCTACGACGGGATT
# B18: CCCUGCA (DNA:RNA)
# RNA: B1 RNA with G25C, A26C, A27C, C29G, G30C
# DNA 1: CAATCTGAATTCCGGTCTCCC
# DNA 2: TGGTGGCTACGACGGGATT
# B19: CCCGCAG (DNA:RNA)
# RNA: B1 RNA with G25C, A26C, A27C, U28G, G30A, A31G
# DNA 1: CAATCTGAATTCCGGTCTCCC
# DNA 2: TGGTGGCTACGACGGGATT
# B20: AGGCAUC (DNA:RNA)
# RNA: GGGAGACCGGAAUUCAGAUUGUCCAGGCAUCUUAAAUCCCGUCGUAGCCACCA
# DNA 1: CAATCTGAATTCCGGTCTCCC
# DNA 2: TGGTGGCTACGACGGGATT
# Biological target: T1, RBFOX1 RRM
# Assay: EMSA; HiTS-Eq, 1 nM pool, 10 min; buffer printed only for the single-RNA assays: 10 mM Tris pH 7.5, 150 mM NaCl, 3.4 mM EDTA, 0.001% NP-40, 30 C
# Settings: tags: His6 N-terminal (pET28a); label: 5' 32P
# Procedure, shortened: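 A pool of RNA with 7 randomized nucleotides, 5′-radiolabelled and with DNA-annealed flanks, was equilibrated at 1 nM for 10 min in 50 µL with purified RbFox RRM, wild type or mutant, across increasing protein concentrations. Free RNA was separated by 8% native PAGE, excised, reverse-transcribed, barcoded by PCR and sequenced. Relative association constants were obtained from read-count changes of each RNA species versus the control reaction and normalised to the cognate motif.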
row,Binder,binding signal
1,B1,0.0155 KA relative to UGCAUGU
2,B2,0.00363 KA relative to UGCAUGU
3,B3,0.00237 KA relative to UGCAUGU
4,B4,0.00301 KA relative to UGCAUGU
5,B5,0.0314 KA relative to UGCAUGU
6,B6,0.0065 KA relative to UGCAUGU
7,B7,0.0143 KA relative to UGCAUGU
8,B8,0.0196 KA relative to UGCAUGU
9,B9,0.0103 KA relative to UGCAUGU
10,B10,0.0137 KA relative to UGCAUGU
11,B11,0.0126 KA relative to UGCAUGU
12,B12,0.0122 KA relative to UGCAUGU
13,B13,0.00926 KA relative to UGCAUGU
14,B14,0.0104 KA relative to UGCAUGU
15,B15,0.0147 KA relative to UGCAUGU
16,B16,0.0253 KA relative to UGCAUGU
17,B17,0.025 KA relative to UGCAUGU
18,B18,0.0126 KA relative to UGCAUGU
19,B19,0.0146 KA relative to UGCAUGU
20,B20,0.0123 KA relative to UGCAUGU

# From publication PMC9911399, “Two distinct binding modes provide the RNA-binding protein RbFox with extraordinary sequence specificity”
